Data published in paper PMC4336329 (PLoS ONE, 2015).
Among all 310,000 compounds or so, about 2,200 (0.71%) showed an effect of 50% or more. The effect is printed as a negative number. The list shows a part of the results.

Target: human ether-à-go-go-related gene (hERG) potassium channel (human, UniProt Q12809)
Experiment: primary screen, population patch clamp on CHO cells stably expressing hERG

Chain of human ether-à-go-go-related gene (hERG) potassium channel (Q12809 whole entry, looked up): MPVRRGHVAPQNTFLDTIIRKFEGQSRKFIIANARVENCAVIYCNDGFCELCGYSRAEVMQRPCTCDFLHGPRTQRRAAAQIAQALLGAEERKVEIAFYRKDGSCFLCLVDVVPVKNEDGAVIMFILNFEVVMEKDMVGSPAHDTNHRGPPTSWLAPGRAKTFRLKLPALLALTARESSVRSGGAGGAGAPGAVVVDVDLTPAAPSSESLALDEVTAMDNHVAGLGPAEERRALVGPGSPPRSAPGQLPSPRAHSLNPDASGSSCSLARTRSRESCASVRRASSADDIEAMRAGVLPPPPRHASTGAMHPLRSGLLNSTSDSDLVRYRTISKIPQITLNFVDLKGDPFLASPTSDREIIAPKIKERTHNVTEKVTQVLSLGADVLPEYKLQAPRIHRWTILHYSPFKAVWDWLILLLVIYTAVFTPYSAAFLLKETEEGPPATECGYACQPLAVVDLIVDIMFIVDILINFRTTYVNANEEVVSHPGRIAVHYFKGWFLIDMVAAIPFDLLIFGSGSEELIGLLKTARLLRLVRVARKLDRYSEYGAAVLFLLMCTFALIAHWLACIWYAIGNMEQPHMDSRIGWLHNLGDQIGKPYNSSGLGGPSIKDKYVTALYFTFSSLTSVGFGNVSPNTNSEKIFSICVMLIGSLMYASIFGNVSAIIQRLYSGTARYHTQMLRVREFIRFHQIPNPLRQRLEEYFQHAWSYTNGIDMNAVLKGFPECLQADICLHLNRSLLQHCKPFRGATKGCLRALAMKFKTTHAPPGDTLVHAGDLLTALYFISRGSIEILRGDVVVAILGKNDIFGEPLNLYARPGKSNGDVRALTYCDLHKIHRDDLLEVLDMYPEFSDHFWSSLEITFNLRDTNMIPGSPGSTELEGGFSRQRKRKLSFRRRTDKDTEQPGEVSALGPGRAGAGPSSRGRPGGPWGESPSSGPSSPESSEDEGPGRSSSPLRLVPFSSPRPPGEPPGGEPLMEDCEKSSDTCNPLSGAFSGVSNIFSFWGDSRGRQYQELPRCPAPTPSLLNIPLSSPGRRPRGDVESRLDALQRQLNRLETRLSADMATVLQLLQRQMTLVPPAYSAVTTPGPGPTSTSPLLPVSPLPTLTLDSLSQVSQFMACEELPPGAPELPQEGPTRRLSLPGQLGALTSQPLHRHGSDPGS

Row | Compound | hERG current change (%, negative = inhibition) at 1uM
1 | Cc1ccc(Cn2ccccc2=N)cc1.Cl | 11.7%
2 | CC/C(=N\Nc1ccc([N+](=O)[O-])cc1)c1ccccc1 | -13.1%
3 | O=C(Nc1ccc(N2CCN(C(=O)c3ccco3)CC2)cc1)c1ccccc1 | 5.94%
4 | C#CCOCCOCCOCCNc1nc(N2CCN(C(=O)Cn3cc(CC(C)O)nn3)CC2)nc(N2CCN(C(=O)Cn3cc(CC(C)O)nn3)CC2)n1 (stereo not shown) | 12.5%
5 | Cc1cccc(N2CCN(C(=O)Cn3sc4nc(C)cc(C)c4c3=O)CC2C)c1 (stereo not shown) | 10%
6 | CCOc1ccc(N2CC(C(=O)Nc3ccc(S(=O)(=O)N4CCCC4)cc3)CC2=O)cc1 (stereo not shown) | 6.22%
7 | Cc1ccc(-n2cc(-c3ccc([N+](=O)[O-])cc3)[nH]c2=S)c(C)c1 | -8.41%
8 | Cc1ccc(C)c(NC(=O)c2cc(-c3ccccc3O)n[nH]2)c1 | 13.2%
9 | CCCNC(=O)c1cccc(COCC(F)(F)C(F)F)c1 | -1.67%
10 | CN1CCN(NC(=O)c2cccc(S(=O)(=O)N3CCCCCC3)c2)CC1.Cl | 9.89%
11 | C=CCn1c(SCCOc2ccc(OC)cc2)nnc1C(C)NC(=O)c1ccc(OC)cc1 (stereo not shown) | 11.6%
12 | CC(C)(C)OC(=O)N/N=C\c1ccc(OC(=O)c2ccco2)cc1 | 10.8%
13 | CCN1CCN(C2CC(=O)NC2=O)CC1 (stereo not shown) | 13.5%
14 | CCOC(=O)c1sc2nc(-c3cccnc3)ccc2c1N | 5.59%
15 | O=C(OC(C(=O)NC1CCCCC1)c1ccc(C(F)(F)F)cc1)c1ccco1 (stereo not shown) | -0.698%
16 | O=C1N(CC(=O)N2CCc3ccccc32)CCN1Cc1ccc(Cl)cc1 | 4.58%
17 | NS(=O)(=O)c1ccc(NC(=O)c2cccc3ccccc23)cc1 | 5%
18 | COc1cc(CNCCCN2CCOCC2)cc(Br)c1OCc1ccc(Cl)cc1.Cl | 8.52%
19 | O=C(CSc1nc2ccc([N+](=O)[O-])cc2[nH]1)NC1CCCC1 | 12%
20 | COc1ccc(S(=O)(=O)N2CCOCC2)cc1NC(=O)CN1C(=O)NC2(CCCC2)C1=O | 11.3%
21 | O=C(COC(=O)c1ccccc1C(=O)c1ccccc1)c1ccco1 | 0.754%
22 | CCOC(=O)c1noc(C)c1C(=O)Nc1nc(C)cc(C)n1 | 8.53%

Row | Compound | hERG current change (%, negative = inhibition) at 1uM
23 | CCC(C)(C)n1nnnc1C(c1ccccn1)N1CCN(c2cccc(OC)c2)CC1 (stereo not shown) | 8.27%
24 | Cc1ccc(-c2cc(C(F)(F)F)n3nc(C(=O)N4CCN5CCCC5C4)cc3n2)cc1 (stereo not shown) | 3.14%
25 | CNc1ccncc1S(=O)(=O)NC | 14.6%
26 | CC1CC(C)CN(CCOCCSc2ccccc2)C1.O=C(O)C(=O)O (stereo not shown) | -6.56%
27 | N#Cc1cc(-c2ccccc2)[nH]c1-c1nccc2ccccc12 | 9.74%
28 | O=C(CSc1n[nH]c(-c2ccccc2F)n1)NCC(=O)Nc1ccc(F)c(F)c1F | 9.22%
29 | COc1ccc(S(=O)(=O)Nc2cccc(C)n2)c2ccccc12 | 6.1%
30 | CCN(CC)C(=O)CSc1nc2sc3c(c2c(=O)n1-c1ccc(C)cc1)CC(C)(C)SC3 | 2.39%
31 | COc1ccc(OC)c(NC(=O)CN2C(=O)C3(OCCCO3)c3ccccc32)c1 | -2.6%
32 | Cc1cc(OCC#N)nc(N)n1 | 5.77%
33 | CCCOc1ccc(C(=O)NC(C)C(=O)O)cc1 (stereo not shown) | 4.26%
34 | Cc1ccc(N2C(=O)[C@@H]3C(C(=O)C(c4ccccc4)c4ccccc4)=NN[C@@H]3C2=O)cc1 | 8.01%
35 | COc1cc(C#N)ccc1OC(=O)C1CCN(C(=O)c2ccc(F)cc2)CC1 | -3.38%
36 | COCCNC(=O)c1cc(-c2ccccn2)nc2ccc(S(=O)(=O)N3CCC(C)CC3)cc12 | -10.9%
37 | Cc1ccc(S(=O)(=O)N[C@H](C(=O)N2CCC3(O)CCCCC3C2)c2ccccc2)cc1 (stereo partly shown) | 4.39%
38 | Cc1ccccc1OCC(=O)OCC(=O)NCCc1ccccc1 | 11.8%
39 | Cc1cccc(C)c1NC(=O)COC(=O)c1ccc(N2CCCC2)c([N+](=O)[O-])c1 | 3.47%
40 | COc1cc(/C=C2/SC(=O)NC2=O)ccc1OCc1ccccc1 | 9.31%
41 | Cc1c(Cl)cccc1NC(=O)C1=COCCO1 | 20.6%
42 | CSCCC(NC(=O)COc1ccccc1)C(=O)OCc1ccc([N+](=O)[O-])cc1 (stereo not shown) | -0.839%
43 | O=C(CCC(=O)OCc1ccc(Cl)cc1)Nc1ccccc1 | -0.0175%
